Results from publication PMC4292585.
No constants are given. Whether binding was seen depends on the method and setting. Binding seen in cells or lysates may run through a third protein. Some binding calls cover weakened binding; strength is not graded here.

The chains behind the UniProt entries cited, without tags or fusion partners.
UniProt P17096: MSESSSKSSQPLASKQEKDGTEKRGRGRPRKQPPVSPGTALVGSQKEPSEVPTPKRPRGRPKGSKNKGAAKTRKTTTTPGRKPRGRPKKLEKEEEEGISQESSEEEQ
UniProt D3ZNT6: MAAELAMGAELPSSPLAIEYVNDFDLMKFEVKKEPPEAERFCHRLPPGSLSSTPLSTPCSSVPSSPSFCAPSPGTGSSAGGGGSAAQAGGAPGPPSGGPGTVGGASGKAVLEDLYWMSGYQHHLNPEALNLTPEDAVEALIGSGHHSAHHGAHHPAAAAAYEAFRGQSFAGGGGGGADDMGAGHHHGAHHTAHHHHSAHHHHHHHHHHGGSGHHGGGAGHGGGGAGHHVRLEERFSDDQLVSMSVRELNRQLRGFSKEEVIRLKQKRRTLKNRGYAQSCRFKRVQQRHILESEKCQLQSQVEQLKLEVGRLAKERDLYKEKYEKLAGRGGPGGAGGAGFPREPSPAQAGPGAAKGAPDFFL
UniProt P52945: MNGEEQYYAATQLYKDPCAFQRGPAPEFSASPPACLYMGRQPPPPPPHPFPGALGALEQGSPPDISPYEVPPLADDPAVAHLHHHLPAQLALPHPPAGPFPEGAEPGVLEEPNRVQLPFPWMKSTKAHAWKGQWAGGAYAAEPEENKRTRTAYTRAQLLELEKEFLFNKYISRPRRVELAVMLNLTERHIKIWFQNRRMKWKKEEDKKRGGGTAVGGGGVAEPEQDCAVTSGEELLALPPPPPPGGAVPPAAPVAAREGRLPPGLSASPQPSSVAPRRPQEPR
UniProt Q13562: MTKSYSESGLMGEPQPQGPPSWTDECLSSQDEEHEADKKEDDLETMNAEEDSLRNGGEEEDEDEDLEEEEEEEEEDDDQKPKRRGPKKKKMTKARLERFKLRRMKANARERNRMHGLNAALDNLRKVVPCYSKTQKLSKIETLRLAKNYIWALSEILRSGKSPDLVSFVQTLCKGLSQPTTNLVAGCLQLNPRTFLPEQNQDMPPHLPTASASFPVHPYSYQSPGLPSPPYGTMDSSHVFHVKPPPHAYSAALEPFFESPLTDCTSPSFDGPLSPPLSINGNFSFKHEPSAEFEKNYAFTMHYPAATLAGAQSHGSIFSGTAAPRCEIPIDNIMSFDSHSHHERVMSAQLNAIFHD
UniProt Q8NHW3: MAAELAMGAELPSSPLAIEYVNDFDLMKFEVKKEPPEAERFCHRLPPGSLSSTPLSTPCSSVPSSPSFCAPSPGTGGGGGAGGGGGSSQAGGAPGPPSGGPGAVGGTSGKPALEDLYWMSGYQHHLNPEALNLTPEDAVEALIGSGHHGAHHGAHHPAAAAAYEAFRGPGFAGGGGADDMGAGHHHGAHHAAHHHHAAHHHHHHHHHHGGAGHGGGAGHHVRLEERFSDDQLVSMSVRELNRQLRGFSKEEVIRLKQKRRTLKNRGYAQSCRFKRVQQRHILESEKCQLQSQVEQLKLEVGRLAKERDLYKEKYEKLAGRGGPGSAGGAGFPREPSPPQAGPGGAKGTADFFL
UniProt P52947: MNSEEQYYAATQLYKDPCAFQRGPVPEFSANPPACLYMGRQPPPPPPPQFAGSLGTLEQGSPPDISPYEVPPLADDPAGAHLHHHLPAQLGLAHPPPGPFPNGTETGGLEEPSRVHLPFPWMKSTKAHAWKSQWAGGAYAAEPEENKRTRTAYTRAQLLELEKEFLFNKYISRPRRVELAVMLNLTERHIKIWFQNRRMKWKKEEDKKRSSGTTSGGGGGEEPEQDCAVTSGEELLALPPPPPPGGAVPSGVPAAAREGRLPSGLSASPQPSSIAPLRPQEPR

Columns and labels:
[1] = target: T1, HMGA1, endogenous in INS-1 nuclear extract (rat (endogenous in INS-1)) (UniProt Q8K585); assay: co-IP; anti-HMGA1 polyclonal antibody coupled to protein A-Sepharose beads; INS-1 nuclear extract (500 μg), 3 h at 4°C; washed in NETN buffer (0.1% NP-40, 150 mM NaCl, 1 mM EDTA, 50 mM Tris-HCl pH 8.0); immunoblot with anti-PDX-1 or anti-MafA
T1 sequence: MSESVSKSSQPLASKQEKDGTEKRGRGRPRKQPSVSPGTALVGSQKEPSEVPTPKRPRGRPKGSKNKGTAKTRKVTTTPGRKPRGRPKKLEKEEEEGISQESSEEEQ

[2] = target: Glutathione S-transferase (GST)-tagged human HMGA1 (human) (UniProt P17096); assay: pull-down; 35S-labeled proteins retained on GST-HMGA1 or GST affinity resin, in the absence of DNA; SDS-PAGE; only the target purified

Substance | binding [1] | binding [2]
MafA, endogenous in INS-1 nuclear extract (from UniProt D3ZNT6 1-361) | binds | –
Human 35S-labeled PDX-1 (pancreatic and duodenal homeobox factor-1) (from UniProt P52945 1-283) | – | binds

More lines, now with the values ahead:

binding [1] | binding [2] | Substance
– | no binding | 35S-NeuroD (from UniProt Q13562 1-356)
– | binds | Human 35S-labeled MafA (V-maf musculoaponeurotic fibrosarcoma oncogene homolog A) (from UniProt Q8NHW3 1-353)
binds | – | PDX-1, endogenous in INS-1 nuclear extract (from UniProt P52947 1-283)
